# In PMC4336329 (PLoS ONE, 2015):
# In all, about 310,000 compounds went through this assay and about 14,000 (4.5%) showed an effect of 50% or more. The effect is printed as a negative number. This is one part of the list.
# Molecular target: human ether-à-go-go-related gene (hERG) potassium channel (human, UniProt Q12809)
# Experiment: primary screen, population patch clamp on CHO cells stably expressing hERG
# 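Note: peak tail current of the secondary pulse compared with the same well before compound.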
# Sequence of human ether-à-go-go-related gene (hERG) potassium channel (Q12809 whole entry, looked up): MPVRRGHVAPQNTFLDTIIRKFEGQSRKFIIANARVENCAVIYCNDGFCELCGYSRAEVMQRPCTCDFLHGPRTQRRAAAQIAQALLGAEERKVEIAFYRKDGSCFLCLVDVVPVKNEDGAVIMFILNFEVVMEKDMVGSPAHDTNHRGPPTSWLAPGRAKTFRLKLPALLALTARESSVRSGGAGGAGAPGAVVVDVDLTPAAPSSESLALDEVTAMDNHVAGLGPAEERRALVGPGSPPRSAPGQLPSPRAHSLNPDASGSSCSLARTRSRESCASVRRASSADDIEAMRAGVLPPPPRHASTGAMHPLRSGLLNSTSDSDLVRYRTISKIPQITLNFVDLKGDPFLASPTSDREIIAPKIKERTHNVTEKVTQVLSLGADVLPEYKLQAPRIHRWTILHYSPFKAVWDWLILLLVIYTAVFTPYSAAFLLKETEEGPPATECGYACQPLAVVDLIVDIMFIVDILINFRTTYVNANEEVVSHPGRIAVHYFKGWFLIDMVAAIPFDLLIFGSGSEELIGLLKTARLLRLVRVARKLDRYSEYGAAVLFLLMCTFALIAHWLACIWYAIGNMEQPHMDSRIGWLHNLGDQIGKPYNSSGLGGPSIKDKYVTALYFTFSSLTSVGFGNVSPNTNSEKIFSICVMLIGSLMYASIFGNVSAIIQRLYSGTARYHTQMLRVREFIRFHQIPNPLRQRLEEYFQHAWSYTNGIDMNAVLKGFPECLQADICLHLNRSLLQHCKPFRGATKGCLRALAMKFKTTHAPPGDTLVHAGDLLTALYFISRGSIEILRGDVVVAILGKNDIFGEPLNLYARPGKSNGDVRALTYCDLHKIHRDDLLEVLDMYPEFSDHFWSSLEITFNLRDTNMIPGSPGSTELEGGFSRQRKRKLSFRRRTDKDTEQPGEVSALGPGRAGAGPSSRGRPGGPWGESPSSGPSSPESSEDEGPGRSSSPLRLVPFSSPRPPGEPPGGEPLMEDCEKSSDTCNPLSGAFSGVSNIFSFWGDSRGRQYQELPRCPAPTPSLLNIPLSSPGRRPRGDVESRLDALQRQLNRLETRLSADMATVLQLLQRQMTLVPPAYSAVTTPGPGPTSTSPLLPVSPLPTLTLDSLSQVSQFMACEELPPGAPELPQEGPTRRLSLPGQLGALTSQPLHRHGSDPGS
row,Structure (SMILES),"hERG current change (%, negative = inhibition) at 10uM"
1,OC(CN1C2=NCCN2c2ccccc21)c1ccc(Br)cc1 (centres unmarked),-71%
2,COc1ccc(CN(CC2CCC(C(=O)O)CC2)C(=S)Nc2ccccc2OC)cc1 (centres unmarked),9.91%
3,CCN(CC)c1ncnc2c1[nH]c1ccccc12,-21.8%
4,COc1cccc(/C(N)=N/OC(=O)Cc2ccccc2[N+](=O)[O-])c1,4.95%
5,Cc1ccc(C(=O)OCC(=O)Nc2ccc3c(c2)OCO3)c(O)c1,-0.398%
6,Cn1c(=O)cc(N)n(-c2ccccc2)c1=O,16.3%
7,COc1ccccc1/C=C/C=N/n1c(-c2cc(C)[nH]n2)n[nH]c1=S,22.9%
8,COc1ccccc1N1CCN(C(=O)C(=O)c2cn(CC(=O)N3CCCC3)c3ccccc23)CC1,4.53%
9,CN(C(=O)CSc1nnc(NC2CCCCC2)s1)C1CCS(=O)(=O)C1 (centres unmarked),8.41%
10,CCn1c(-c2ccc(N)cc2)nc2ccccc21,4.21%
11,CCn1cc(C(=O)OCC(=O)Nc2cccc(C)c2)c(=O)c2ccc(C)nc21,19.7%
12,COc1cccc(/C=N/NC(=O)C(C)Sc2ccccc2)c1 (centres unmarked),1.85%
13,O=C1N/C(=C/c2cccn2-c2ccccc2)C(=O)N1Cc1ccccc1F,8.06%
14,CC(=O)NS(=O)(=O)c1ccc(NC(=S)NC(=O)c2ccco2)cc1,2.54%
15,Cc1ccc(/C=N/n2c(C)cc(C)c(C#N)c2=O)o1,18.6%
16,Cc1ccc(CNC(=O)CCCn2c(=O)c3ccccc3n(CC(=O)NC3CCCC3)c2=O)cc1,-17.7%
17,Cc1cc(Cl)ccc1NC(=S)NCCC(c1ccccc1)c1ccccc1,17%
18,CCN(CC)S(=O)(=O)c1ccc(NC(=O)C(C)N(c2ccc(OC)cc2)S(C)(=O)=O)cc1 (centres unmarked),-6.05%
19,O=C(Nc1ccccc1C(=O)N1CCOCC1)C1CCC(=O)N1C1CCCC1 (centres unmarked),22.7%

row,Structure (SMILES),"hERG current change (%, negative = inhibition) at 10uM"
1,COc1ccc(-c2cccc(NC(=O)c3ccco3)c2)nn1,1.69%
2,COCCNC(=O)c1ccccc1NC(=O)Cc1ccccc1,-3.95%
3,O=C(Nc1ccc(-c2csc(Nc3ccccc3)n2)cc1)c1cccc(C(F)(F)F)c1,20.1%
4,O=S(=O)(c1ccccc1)N1CCN(c2nnc(-c3ccccc3)c3ccccc23)CC1,-18.2%
5,CC(=O)N1c2ccccc2NC2=C(C(=O)CCC2)C1c1cccnc1 (centres unmarked),4.51%
6,O=C(NNC(=O)C1CCN(S(=O)(=O)c2ccc(Cl)cc2)CC1)c1ccc(Cl)cc1,-7.12%
7,Cc1nc(-c2cccnc2)sc1C(=O)Nc1ccc(Cl)cc1,-29.2%
8,CC/C(=C\C(=O)c1ccncc1)Nc1ccc(O)cc1,-18.3%
9,Cc1cccc(CC(=O)NCC(=O)NCc2cc(=O)n(C)c(=O)n2C)c1,18.2%
10,Cc1ccc(S(=O)(=O)N2CCN(C)CC2)cc1C(=O)NC1CCCCC1,-19.5%
11,Cc1cc(C)cc(NC(=O)CSc2nc3[nH]c(=O)cc(O)c3s2)c1,5.94%
12,CSc1ncc(C(=O)Nc2cccc(Cl)c2C)c(C)n1,3.95%
13,COC(=O)C1CCN(C(=O)COC(=O)CNC(=O)c2ccc(Cl)cc2Cl)CC1,-30.4%
14,Cc1ccc(F)c(C2C3C=CCC(c4cccc(-c5ccc(N(C)C)cc5)c4)C3C(=O)N2Cc2ccccc2)c1 (centres unmarked),13.4%
15,CCC(=O)OCc1cc2cccc(C)c2[nH]c1=O,-1.03%
16,CC(NS(=O)(=O)c1ccc(Cl)c(Cl)c1)C(=O)OCC(=O)Nc1ccc2c(c1)OCO2 (centres unmarked),-44.1%
17,COC(=O)c1ccc(COc2ccc(C(=O)c3ccccc3)cc2)o1,12.8%
18,CC1Cc2cc(S(=O)(=O)CCC(=O)NCc3ccco3)ccc2N1C(=O)C1CC1 (centres unmarked),12.5%
19,O=C(CCc1ccccc1)Nc1ccccc1[N+](=O)[O-],19%

row,Structure (SMILES),"hERG current change (%, negative = inhibition) at 10uM"
1,COCCn1c(SCC(=O)Nc2ccccc2)nc2c1c(=O)[nH]c(=O)n2C,-29.2%
2,C=C(C)Cn1c(CCNC(=O)C(C)C)nc2ccccc21,-2.45%
3,CCNC(=O)c1cc2c(=O)n3cccc(C)c3nc2n(Cc2ccc(C)cc2)c1=N,-88%
4,O=C(N/N=C/c1ccccc1)C(O)c1ccccc1 (centres unmarked),21%
5,CNc1ccccc1NC(=O)CCn1c(=S)oc2ccccc21,4.1%
6,Cc1ccc(NC(=O)C(c2ccccc2)N2CCN(CC(=O)NC3CC3)CC2)cc1 (centres unmarked),-18.1%
7,COCCN(C(=S)Nc1cc(C)cc(C)c1)C(C)c1ccco1 (centres unmarked),-6.7%
8,CC1CN(c2ncnc3c2oc2ccccc23)CC(C)O1.Cl (centres unmarked),-2.64%
9,COc1ccc(N2CCN(c3ccc(N)cc3C#N)CC2)cc1,0.876%
10,Cc1cccnc1NC(=O)c1ccccc1-c1ccccc1C(=O)Nc1ncccc1C,-31.2%
11,O=C(c1ccccc1-c1nc(-c2ccccc2)no1)N1CCCC1,-4.86%
12,O=C(Nc1cc(S(=O)(=O)N2CCOCC2)ccc1N1CCCC1)c1cc(=O)[nH]c2ccccc12,3.35%
13,O=S(=O)(NCc1cccnc1)c1ccc(Cl)cc1,2.27%
14,COc1ccccc1CN1CCN(C(=O)Cc2ccccc2)CC1,-20.6%
15,O=[N+]([O-])c1ccc(O)c(CSc2nnnn2-c2ccccc2)c1,19.8%
16,Cc1ccc(NS(=O)(=O)N2CCOCC2)cc1,25%
17,COc1cccc(Nc2nc(C)cc(C)c2C#N)c1,9.6%
18,Cc1cccc(-n2c(SCC(=O)Nc3ccc4c(c3)OCO4)nnc2-c2ccoc2C)c1,-0.162%
